Some of the results follow.
biological target: T1, OsWOX13 (Oryza sativa, UniProt Q5QMM3 1-267); assay: protein-binding microarray (RPBM); PBS, 2% BSA, 51.3 ng/ul salmon testes DNA, 50 uM zinc acetate, 200 nM TF, 25 C, 1 h; high values mean tight binding; settings: protein: recombinant; tags: N-terminal polyhistidine and DsRed monomer fusion (pET32a); label: CyDye5-dUTP incorporated in the synthesized complementary strand; 3' TTTTT single-stranded linker to array surface; dsDNA, one strand shown
T1 sequence: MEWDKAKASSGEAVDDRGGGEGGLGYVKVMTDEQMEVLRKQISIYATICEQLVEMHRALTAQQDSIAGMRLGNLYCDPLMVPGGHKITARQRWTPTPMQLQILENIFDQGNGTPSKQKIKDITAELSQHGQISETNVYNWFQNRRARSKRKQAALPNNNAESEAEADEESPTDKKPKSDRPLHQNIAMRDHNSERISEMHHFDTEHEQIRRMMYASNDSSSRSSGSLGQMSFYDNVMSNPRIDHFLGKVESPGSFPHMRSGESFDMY
Outline: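 Ni–NTA purification followed expression in E. coli BL21-CodonPlus of transcription factors fused N-terminally to a polyhistidine tag and DsRed. At 200 nM in PBS with 2% BSA, salmon testes DNA and 50 µM zinc acetate, the protein was incubated for 1 h at 25 °C with a custom Agilent array that had been primer-extended with Cy5-dUTP and blocked with 2% BSA. After washing, the array was read on an Axon 4000B scanner. The binding signal is per-feature fluorescence intensity in arbitrary units.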

Row | Sequence | binding signal
1 | TCCTAATTAGCTCCTAGCTAGCTAGCTTTATATACCAAATCGGAGTCACCTAGTGCAG | 23800 fluorescence intensity (a.u.)
2 | ACTGATAGACTGACATCCTGTCATCAACGAAGACACGGGCCGGAGTCACCTAGTGCAG | 47700 fluorescence intensity (a.u.)
3 | CGGAGATGATTTTGTTAAAGTTGTGCAACGTCTTGTTATGCGGAGTCACCTAGTGCAG | 16600 fluorescence intensity (a.u.)
4 | TAGAGAAGATTGGAAAGATACGCAAAACAAGGTGAGGTATCGGAGTCACCTAGTGCAG | 14700 fluorescence intensity (a.u.)
5 | AAGTTGTGATTAAGTTACTGTAGATAATAAAGTAAGTCACCGGAGTCACCTAGTGCAG | 5840 fluorescence intensity (a.u.)
6 | TAAATAATTGATAAAATTGTTTCTGGTTCTATAGCACCAACGGAGTCACCTAGTGCAG | 40300 fluorescence intensity (a.u.)
7 | ATCCAGTCTAATTATAACTGCCATGTAGATATGGGTATCCCGGAGTCACCTAGTGCAG | 24600 fluorescence intensity (a.u.)
8 | ATATCCAATTATTGGACTCCATGACAGCATGCACCGATCGCGGAGTCACCTAGTGCAG | 22100 fluorescence intensity (a.u.)
9 | ATAAATATTTAATGCAGTTGATTTTGATCATAAAGCTTGACGGAGTCACCTAGTGCAG | 4530 fluorescence intensity (a.u.)
10 | ATTCGTGGATGTATTACTAATTAATTAGTGCAGGACTTAGCGGAGTCACCTAGTGCAG | 11000 fluorescence intensity (a.u.)
11 | CAGTACTGATTAAGCATTCTTTCAATTCGTCTGTTCCCCACGGAGTCACCTAGTGCAG | 11000 fluorescence intensity (a.u.)
12 | AAGAAAATTACAAGATGTAACACTCAAAATTGTCACGGTCCGGAGTCACCTAGTGCAG | 3570 fluorescence intensity (a.u.)
13 | GATTGAAAATTTAAATTTTAGCTGGTAAGCATAAGCATATCGGAGTCACCTAGTGCAG | 4520 fluorescence intensity (a.u.)
14 | CCTCTCTAAGATGATGGGATTGACAAGCAGACCCCGTATTCGGAGTCACCTAGTGCAG | 8670 fluorescence intensity (a.u.)
15 | TCTAAATTAGGCTTACCAATATTTGGTAATTTCAATAGTGCGGAGTCACCTAGTGCAG | 18500 fluorescence intensity (a.u.)
16 | AATAATTAAACATTAAACACGAAAATTCACGACTGTATTTCGGAGTCACCTAGTGCAG | 20000 fluorescence intensity (a.u.)
17 | AAAATAATTTGGTGAATTGAAGACTAGAACCCATGATCTCCGGAGTCACCTAGTGCAG | 9840 fluorescence intensity (a.u.)
18 | AAGTTAAACTGTTTCAAGTTTGATTGACTTTGTAGACAAACGGAGTCACCTAGTGCAG | 15100 fluorescence intensity (a.u.)
19 | GTTGCATGATTAAACGAATTGACACGTCCTGAACCCGATTCGGAGTCACCTAGTGCAG | 22100 fluorescence intensity (a.u.)
20 | GCATCACCAATCATCATTTTAAGGTAGTGAACTCTATCATCGGAGTCACCTAGTGCAG | 9670 fluorescence intensity (a.u.)
21 | TATTAACTGTTTTGTTTGGTTAAGAGACATGGGAATTTTGCGGAGTCACCTAGTGCAG | 5000 fluorescence intensity (a.u.)
22 | CGACGTCGATGATTGGCTCCGTCGCACTTGTCGACAGGAACGGAGTCACCTAGTGCAG | 20700 fluorescence intensity (a.u.)
23 | CTGGTTTCATTTTAATTGACGTTTTGGACAATGACACGGTCGGAGTCACCTAGTGCAG | 29000 fluorescence intensity (a.u.)
24 | GCTGACGAGGAAGAAGGTCTGTTGCAGTTATTCCTGGTGTCGGAGTCACCTAGTGCAG | 3290 fluorescence intensity (a.u.)
25 | ATCAATAATCATTCGTAGCGAAATTATTTTCTCCCGATATCGGAGTCACCTAGTGCAG | 5010 fluorescence intensity (a.u.)
26 | ATGATATACTTGATTTTGTAGCTAGGCCCTATTCGAGTTCCGGAGTCACCTAGTGCAG | 8700 fluorescence intensity (a.u.)
27 | ATAATTGATCACTAAGAATATGATCAGTCGCCGCCATTGACGGAGTCACCTAGTGCAG | 31000 fluorescence intensity (a.u.)

Row | Sequence | binding signal
28 | CCCTAATTATTGGATGATTACAGGTGTGTTAACACTAACACGGAGTCACCTAGTGCAG | 33400 fluorescence intensity (a.u.)
29 | AATCTGCAATTATCAGGATTGACGAGAGAATCAAAGACCTCGGAGTCACCTAGTGCAG | 17900 fluorescence intensity (a.u.)
30 | ACTTACACAGTAATTACACCTCACTTACACCCGCTTACACCGGAGTCACCTAGTGCAG | 4370 fluorescence intensity (a.u.)
31 | TTTGCTAATGAAGGATTAATTAGACTTAATAAATTCGTCTCGGAGTCACCTAGTGCAG | 20600 fluorescence intensity (a.u.)
32 | GCCTATTGCATAATTGCACAAACGACGACGAGCAGCAGCACGGAGTCACCTAGTGCAG | 3660 fluorescence intensity (a.u.)
33 | AAACAAATTTGCTGACTAGGATTCCACGTCAGCGAAACCACGGAGTCACCTAGTGCAG | 7980 fluorescence intensity (a.u.)
34 | TAAAATTAGAAACAATTGGATGATAAAGTTCAGTCTTTCACGGAGTCACCTAGTGCAG | 8150 fluorescence intensity (a.u.)
35 | TCTATATAATTAATGGAGTAATTTATACAAGCTAGAGCGCCGGAGTCACCTAGTGCAG | 27800 fluorescence intensity (a.u.)
36 | TCTCTAAATTTCTTCCAAATGGAATTATTCTAAGTTGAATCGGAGTCACCTAGTGCAG | 4080 fluorescence intensity (a.u.)
37 | CATGATTTTGGCATGGCACTTAACCCCAAATATTGTGGCTCGGAGTCACCTAGTGCAG | 16900 fluorescence intensity (a.u.)
38 | TTGAGATTGGATTCCAAAACTGGTGCATTAAAGTATAATTCGGAGTCACCTAGTGCAG | 11000 fluorescence intensity (a.u.)
39 | CCAGCCAATCAGAACCCAACTTGCCAACTCCTGGTCATAACGGAGTCACCTAGTGCAG | 17100 fluorescence intensity (a.u.)
40 | TACTAACTGACGGTTTGCCTCCTCCTTGTTATCGCCGACGCGGAGTCACCTAGTGCAG | 13000 fluorescence intensity (a.u.)
41 | CGCCTCATCTTTGGTTAATTGTGTTCCGGTTCAGGCTATTCGGAGTCACCTAGTGCAG | 4650 fluorescence intensity (a.u.)
42 | ATGTAAATTACTTTTAGGCTTTATTGAATTACTTTTATATCGGAGTCACCTAGTGCAG | 7630 fluorescence intensity (a.u.)
43 | CCTAACTGACTGACACGTGAACCCGTAACTCGTGGATCCCCGGAGTCACCTAGTGCAG | 33100 fluorescence intensity (a.u.)
44 | CAAATACAAATTATCTCAAATACGAATAAGGATCGAATATCGGAGTCACCTAGTGCAG | 3240 fluorescence intensity (a.u.)
45 | CTCACCAATTAAACAACACCATTAACCACCACCCCATCTACGGAGTCACCTAGTGCAG | 8330 fluorescence intensity (a.u.)
46 | GATAATAGTTTACTCGTTGATTAATCCAATTCGTAATACACGGAGTCACCTAGTGCAG | 12600 fluorescence intensity (a.u.)
47 | AAAATTGACAATAATCCAAACAACCGTACTGTACCAAAACCGGAGTCACCTAGTGCAG | 19400 fluorescence intensity (a.u.)
48 | CATTAATTCTCCAAACATATATTGATAAAATCTTTCAAAACGGAGTCACCTAGTGCAG | 3470 fluorescence intensity (a.u.)
49 | TAGACTAGATTTATCTATTTATTTTGATAGTGGGGAAGTACGGAGTCACCTAGTGCAG | 7180 fluorescence intensity (a.u.)
50 | GCTAAAATTTATGAACTGAAACTGGAATTCCCTCAAACAGCGGAGTCACCTAGTGCAG | 5990 fluorescence intensity (a.u.)
51 | AATAACAAATTCCTAATTGCCACATTTTAAAAGTGACAAACGGAGTCACCTAGTGCAG | 14900 fluorescence intensity (a.u.)
52 | TCCATATTTGATTATTTTCAACGTTACTCCTCTAGTGCCTCGGAGTCACCTAGTGCAG | 21100 fluorescence intensity (a.u.)
53 | GCATAAATTGACTATTAGATTGAGTATAAATGAATTGGAGCGGAGTCACCTAGTGCAG | 51600 fluorescence intensity (a.u.)
54 | TGATAAATTTAGAAATATCAATTTTACATGATTTATCTTTCGGAGTCACCTAGTGCAG | 14900 fluorescence intensity (a.u.)
